In paper PMC5566548:
Results are given in words; binding and its absence hold for the method and conditions named. Binding seen in cells or lysates may run through a third protein. Some results given as binding are weak or reduced against the parent protein; the word gives no strength. For some assays here: Tags and fused reporters may be left off the sequences shown.

By UniProt entry, the sequences of proteins in these tests, tags left out.
UniProt P48039: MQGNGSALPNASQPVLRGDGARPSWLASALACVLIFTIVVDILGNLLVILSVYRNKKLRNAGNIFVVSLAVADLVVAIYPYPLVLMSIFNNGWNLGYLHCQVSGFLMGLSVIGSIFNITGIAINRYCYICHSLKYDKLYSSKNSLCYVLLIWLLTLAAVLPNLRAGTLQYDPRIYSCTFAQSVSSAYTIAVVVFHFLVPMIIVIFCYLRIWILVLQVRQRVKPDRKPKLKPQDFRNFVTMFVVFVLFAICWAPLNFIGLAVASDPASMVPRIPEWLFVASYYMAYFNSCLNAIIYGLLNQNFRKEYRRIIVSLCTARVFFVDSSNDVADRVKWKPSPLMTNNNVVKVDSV
UniProt Q8IZ08: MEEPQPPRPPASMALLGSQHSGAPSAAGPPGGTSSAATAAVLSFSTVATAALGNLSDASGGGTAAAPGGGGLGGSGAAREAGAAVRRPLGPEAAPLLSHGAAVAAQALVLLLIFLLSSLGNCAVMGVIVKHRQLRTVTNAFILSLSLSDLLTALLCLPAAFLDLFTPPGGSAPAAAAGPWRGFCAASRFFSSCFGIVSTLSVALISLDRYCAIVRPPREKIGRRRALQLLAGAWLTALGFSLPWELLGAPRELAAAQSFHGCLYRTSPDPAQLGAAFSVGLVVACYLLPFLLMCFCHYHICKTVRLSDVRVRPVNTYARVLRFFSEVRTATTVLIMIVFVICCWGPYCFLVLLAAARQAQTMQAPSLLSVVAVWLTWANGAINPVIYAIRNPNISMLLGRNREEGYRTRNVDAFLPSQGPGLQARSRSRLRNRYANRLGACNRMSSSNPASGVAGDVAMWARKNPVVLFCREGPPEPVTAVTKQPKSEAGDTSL
UniProt Q9BZJ7: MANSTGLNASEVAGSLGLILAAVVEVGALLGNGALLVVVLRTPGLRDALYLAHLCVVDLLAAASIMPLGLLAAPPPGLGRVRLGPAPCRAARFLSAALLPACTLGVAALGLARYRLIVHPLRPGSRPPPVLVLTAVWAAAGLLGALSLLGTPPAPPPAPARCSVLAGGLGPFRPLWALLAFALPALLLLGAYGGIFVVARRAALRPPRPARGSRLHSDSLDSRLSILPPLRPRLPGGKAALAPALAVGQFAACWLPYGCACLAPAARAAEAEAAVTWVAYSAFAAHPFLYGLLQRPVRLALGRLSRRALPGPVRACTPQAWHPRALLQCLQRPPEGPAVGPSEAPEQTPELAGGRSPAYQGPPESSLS
UniProt Q9BZJ8: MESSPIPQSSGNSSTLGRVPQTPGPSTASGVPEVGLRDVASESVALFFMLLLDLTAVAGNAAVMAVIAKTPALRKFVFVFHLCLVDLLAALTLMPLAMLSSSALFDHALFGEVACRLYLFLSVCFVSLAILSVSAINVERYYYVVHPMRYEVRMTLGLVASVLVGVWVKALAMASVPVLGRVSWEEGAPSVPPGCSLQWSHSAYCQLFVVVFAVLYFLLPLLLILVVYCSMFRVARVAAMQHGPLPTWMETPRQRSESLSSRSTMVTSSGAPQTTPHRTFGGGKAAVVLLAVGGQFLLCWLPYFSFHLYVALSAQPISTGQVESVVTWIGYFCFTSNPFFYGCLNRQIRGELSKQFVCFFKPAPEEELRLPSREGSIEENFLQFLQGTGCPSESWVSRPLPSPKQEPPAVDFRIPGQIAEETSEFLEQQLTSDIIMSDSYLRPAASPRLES
UniProt P32121: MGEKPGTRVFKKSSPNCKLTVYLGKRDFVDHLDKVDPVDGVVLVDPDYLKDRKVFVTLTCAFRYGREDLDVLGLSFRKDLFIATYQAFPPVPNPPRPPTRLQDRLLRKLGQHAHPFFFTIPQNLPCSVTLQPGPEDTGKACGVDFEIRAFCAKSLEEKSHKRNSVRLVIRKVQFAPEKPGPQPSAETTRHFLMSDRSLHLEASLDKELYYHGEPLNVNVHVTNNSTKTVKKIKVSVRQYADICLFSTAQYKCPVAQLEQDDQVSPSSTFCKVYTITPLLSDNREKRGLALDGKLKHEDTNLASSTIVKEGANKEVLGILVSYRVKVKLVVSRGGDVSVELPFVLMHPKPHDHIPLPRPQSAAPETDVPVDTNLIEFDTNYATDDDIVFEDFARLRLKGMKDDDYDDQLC
UniProt P49407: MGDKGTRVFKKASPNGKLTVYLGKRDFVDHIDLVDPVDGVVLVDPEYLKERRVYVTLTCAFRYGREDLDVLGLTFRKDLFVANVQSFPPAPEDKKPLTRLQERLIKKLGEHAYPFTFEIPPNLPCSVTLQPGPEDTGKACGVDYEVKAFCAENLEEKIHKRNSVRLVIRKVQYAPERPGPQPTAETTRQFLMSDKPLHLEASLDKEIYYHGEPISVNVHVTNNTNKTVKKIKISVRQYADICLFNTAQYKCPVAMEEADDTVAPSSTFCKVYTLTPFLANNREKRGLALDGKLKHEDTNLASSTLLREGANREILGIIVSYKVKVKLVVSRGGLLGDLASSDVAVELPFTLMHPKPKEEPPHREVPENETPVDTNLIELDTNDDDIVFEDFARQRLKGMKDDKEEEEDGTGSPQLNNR
UniProt P51681: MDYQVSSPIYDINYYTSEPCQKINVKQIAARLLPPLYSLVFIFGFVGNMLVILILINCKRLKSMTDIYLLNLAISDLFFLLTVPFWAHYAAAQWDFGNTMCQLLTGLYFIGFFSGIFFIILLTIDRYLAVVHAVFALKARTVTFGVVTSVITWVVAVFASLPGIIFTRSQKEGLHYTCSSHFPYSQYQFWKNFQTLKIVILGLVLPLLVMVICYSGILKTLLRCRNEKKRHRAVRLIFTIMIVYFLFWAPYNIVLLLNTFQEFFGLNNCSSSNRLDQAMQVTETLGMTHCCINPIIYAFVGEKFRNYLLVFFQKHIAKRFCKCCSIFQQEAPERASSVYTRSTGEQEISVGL

Assays:
HA-MT2-PK2 [1] = molecular target: T1, HA-MT2-PK2 (UniProt P49286); experiment: split reporter; PathHunter in HEK-arrestin-EA cells expressing MT1-PK2 or MT2-PK2, absence or presence of the three orphan receptors; treated with the melatonin receptor antagonist S20928
T1 sequence: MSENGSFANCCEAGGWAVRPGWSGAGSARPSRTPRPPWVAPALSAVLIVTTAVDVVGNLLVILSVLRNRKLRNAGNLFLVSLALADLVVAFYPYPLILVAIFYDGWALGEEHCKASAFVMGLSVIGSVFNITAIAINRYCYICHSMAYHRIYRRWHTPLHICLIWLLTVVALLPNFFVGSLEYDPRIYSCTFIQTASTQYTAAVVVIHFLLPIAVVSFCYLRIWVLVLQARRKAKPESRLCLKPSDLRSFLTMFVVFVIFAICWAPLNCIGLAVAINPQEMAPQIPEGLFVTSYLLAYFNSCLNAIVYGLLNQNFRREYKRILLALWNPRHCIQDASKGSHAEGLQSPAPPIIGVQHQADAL

Flag-MT1-PK2 (human) [2] = molecular target: Flag-MT1-PK2 (human) (UniProt P48039); experiment: as above
HA-MT2-PK2 [3] = molecular target: T1, HA-MT2-PK2; experiment: split reporter; PathHunter in HEK-arrestin-EA cells expressing Flag-MT1-PK2, HA-MT2-PK2 or myc-MT2-MT1-Ctail-PK2 alone or with GPR61-YFP, GPR62-YFP or GPR135-YFP; melatonin 1 µM; results as % of the melatonin response of the receptor alone
Flag-MT1-PK2 (human) [4] = molecular target: Flag-MT1-PK2 (human) (UniProt P48039); experiment: as above
6myc-GPR135-PK2 (human) [5] = molecular target: 6myc-GPR135-PK2 (human) (UniProt Q8IZ08); experiment: split reporter; PathHunter enzyme complementation (DiscoverX) in HEK293 cells stably expressing ß-arrestin2-EA or ß-arrestin1-EA, transfected with different quantities of receptor-PK2 vectors; with or without 1 µM melatonin for 2–3 hours at 37 °C; luminescence
Flag-MT1-PK2 (human) [6] = molecular target: Flag-MT1-PK2 (human) (UniProt P48039); experiment: as above
6myc-GPR62-PK2 (human) [7] = molecular target: 6myc-GPR62-PK2 (human) (UniProt Q9BZJ7); experiment: as above
6myc-GPR61-PK2 (human) [8] = molecular target: 6myc-GPR61-PK2 (human) (UniProt Q9BZJ8); experiment: as above
6myc-GPR135-PK2 (human) [9] = molecular target: 6myc-GPR135-PK2 (human) (UniProt Q8IZ08); experiment: split reporter; PathHunter ß-arrestin2 competition assay: HEK-arrestin-EA cells transfected with 500 ng of GPR-PK2 vectors with or without an additional 500 ng of ß-arrestin2-YFP vector
6myc-GPR62-PK2 (human) [10] = molecular target: 6myc-GPR62-PK2 (human) (UniProt Q9BZJ7); experiment: as above
6myc-GPR61-PK2 (human) [11] = molecular target: 6myc-GPR61-PK2 (human) (UniProt Q9BZJ8); experiment: as above
GPR62-Rluc (human) = GPR62-Rluc (human) (UniProt Q9BZJ7); experiment: FRET or BRET; BRET donor saturation curves in living HEK293T cells: constant amounts of GPR-Rluc (donor; 3 ng GPR61-Rluc, 0.8 ng GPR62-Rluc, 0.2–0.4 ng GPR135-Rluc) and 5–400 ng of YFP plasmids (acceptor); curves normalized to BRETmax
GPR61-Rluc (human) = GPR61-Rluc (human) (UniProt Q9BZJ8); experiment: as above
GPR135-Rluc (human) = GPR135-Rluc (human) (UniProt Q8IZ08); experiment: as above
HA-GPR135 (human) = HA-GPR135 (human) (UniProt Q8IZ08); experiment: co-IP; lysates of HEK293T cells co-expressing MT2-YFP and HA-GPR; IP with anti-HA (3F10) and Protein G, 4 °C, 50 mM Tris-HCl pH 7.5, 150 mM NaCl, 10 mM EGTA, 1 mM DTT, 1% Triton-X 100; blot with anti-GFP
HA-GPR62 (human) = HA-GPR62 (human) (UniProt Q9BZJ7); experiment: as above
HA-GPR61 (human) = HA-GPR61 (human) (UniProt Q9BZJ8); experiment: as above

## ß-arrestin2-EA fusion protein (from UniProt P32121 1-409)
HA-MT2-PK2 [1]
  binding: no binding (condition: with the antagonist S20928)
Flag-MT1-PK2 (human) [2]
  binding: no binding (condition: with the antagonist S20928)
HA-MT2-PK2 [3]
  binding: binds
Flag-MT1-PK2 (human) [4]
  binding: binds
6myc-GPR135-PK2 (human) [5]
  binding: binds
Flag-MT1-PK2 (human) [6]
  binding: binds
6myc-GPR62-PK2 (human) [7]
  binding: binds
6myc-GPR61-PK2 (human) [8]
  binding: binds
6myc-GPR135-PK2 (human) [9]
  binding: binds
6myc-GPR62-PK2 (human) [10]
  binding: binds
6myc-GPR61-PK2 (human) [11]
  binding: binds

## ß-arrestin2-YFP (from UniProt P32121 1-409)
6myc-GPR135-PK2 (human) [9]
  binding: binds
6myc-GPR62-PK2 (human) [10]
  binding: binds
6myc-GPR61-PK2 (human) [11]
  binding: binds

## ß-arrestin1-EA (from UniProt P49407 1-418)
6myc-GPR135-PK2 (human) [5]
  binding: binds
6myc-GPR62-PK2 (human) [7]
  binding: binds
6myc-GPR61-PK2 (human) [8]
  binding: binds

## CCR5-YFP (from UniProt P51681 1-352) (receptor)
GPR62-Rluc (human)
  binding: no binding
GPR61-Rluc (human)
  binding: no binding
GPR135-Rluc (human)
  binding: no binding

B1: MT2-YFP (receptor, UniProt P49286 1-362)
chain: T1 sequence
GPR62-Rluc (human)
  binding: binds
GPR61-Rluc (human)
  binding: binds
GPR135-Rluc (human)
  binding: binds
HA-GPR135 (human)
  binding: binds
HA-GPR62 (human)
  binding: binds
HA-GPR61 (human)
  binding: binds
